In the supplement of paper PMC11417369:
Some of the results follow.

Each sequence was assayed on PfHDP1 homeodomain (GST-tagged) (assay: gcPBM binding intensity (ln(normalized median fluorescence intensity)); higher = stronger DNA binding).
Procedure, shortened: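 In this array assay, P. falciparum DNA-binding domains with a GST tag, expressed in E. coli, were applied for 1 h to primer-extended double-stranded 36-bp intergenic genomic probes and negative controls on an Agilent 4 × 180k array. Bound protein was visualised with Alexa488 anti-GST antibody at 488 nm. Binding intensity is the highest Masliner-normalised natural-log median intensity across replicate spots of either probe orientation.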

Row | Sequence | gcPBM binding intensity (ln)
1 | TTTTCATAAAATCATTGTACATTTATCGTATATTAA [XGTACX_site3855] | 6.26
2 | AAAATATCTTATATATGTACATATTTATATTTATAT [XGTACX_site6027] | 6.4
3 | ATATTGTAAGTAAACACACACACATATATATGTATA [CACACA_site8124] | 6.76
4 | TATTTGTTGTGAGTCACACATATATATATATATATA [CACACA_site4240] | 9.51
5 | AAAAAAAAAAAAAAAACACACAGAACAATATATAAA [CACACA_site4698] | 6.61
6 | AAGCTATATATAGGCAGTACTTTGTAAGTGTAGATA [XGTACX_site8365] | 6.9
7 | TTTTTTATAAAATTTTTTTTTTAAAATATTAAAACT [XGTACX_negctrl_site240] | 6.07
8 | TTTCTAATTCTTAGTGGTACACAGTTCTGCTGATAT [XGTACX_site2391] | 6.09
9 | ATATGTCACTTGTATACACACATATAGATTTCAATC [CACACA_site7519] | 7.47
10 | TATATGCATATACATACACACATAACACATACGTTT [CACACA_site3832] | 7.14
11 | GGAATGGTACATGATACACACACGCACATATATATA [CACACA_site5825] | 7.24
12 | TATATTAAACAATATACACACATTAATGTATACATA [CACACA_site2755] | 6.69
13 | GTTAAAATTGGGGACGCATGTTCCTTTCCTTTTTTT [TGCATGCA_site1002] | 5.83
14 | TTATAAATGTAACGATGTACTTTTAAAAGTTTCCTT [XGTACX_site109] | 6.22
15 | ACAATTTACACTTAAACACACAAAAAAAAATTATAT [CACACA_site2065] | 6.83
16 | ACATATATATTCATATGTACATATACATACATACAT [XGTACX_site4563] | 7.58
17 | GCATCGATCAAACATACACACATGGTTAATAAAAAT [CACACA_site8651] | 6.83
18 | AAGGTAGAAATATGTTGTACGGTTTGGAGGAAGCAA [XGTACX_site1105] | 6.56
19 | TGTTTTATTTTATTAGTGCATTTTTATTTATAATAG [GTGCAC_site9453] | 9.41
20 | ATATAATAGTTATATTGTACATAAATTATACACCTT [XGTACX_site628] | 6.33
21 | GACAAAAAATTAAAATAAAATAATAATATAATAAAA [GTGCAC_negctrl_site234] | 6.2
22 | ATACGCACACATATATGTACATATTGTATATATATA [XGTACX_site3962] | 8.34

Row | Sequence | gcPBM binding intensity (ln)
23 | TATAAACACCCATATAAACACACATATAAACCAACA [CACACA_site8790] | 6.95
24 | ATAATTAATAAATAATGTACATATATATTATATTTT [XGTACX_site8546] | 6.3
25 | TGTGAAGTACCGAATGTGCACTGTGTGTGTTCTTTT [GTGCAC_site9613] | 9.07
26 | TTTTTTTTTTTTTTTTTTTCTATTTTACTGTTTCGT [CACACA_negctrl_site850] | 6.18
27 | TTAAAAAAAAAACACACACACATACACATATATATA [CACACA_site3299] | 7.04
28 | TATATATATGGACACACACACATATAAATAAATAAA [CACACA_site4406] | 6.84
29 | TTTTTATATTTTTGCACACATTCTTTACTCTTCAAA [CACACA_site2210] | 10.4
30 | ATAGCTGTATTTAATACACACAAAACTTTCATTCCA [CACACA_site5868] | 6.71
31 | GAGTGAGCTAATAAAAGTACGTAATAAACAAACGCA [XGTACX_site131] | 6.52
32 | ACCATGAAAATATTATGTACATATGTATTATATATA [XGTACX_site408] | 6.64
33 | TTTTTTTGTTTTGTTTTTTTTTTTTTTTTTTTTTTG [CACACA_negctrl_site570] | 5.67
34 | TTACCGTAAAAATTTTGTACATAAAATAATATATAA [XGTACX_site532] | 6.61
35 | GATATAAAATATTGGTGTACTTTTTTTTTTTTTTTT [XGTACX_site7174] | 6.52
36 | GTATGTGTGTCAAGTCGTACTTACCTTTAAATTTTT [XGTACX_site2507] | 6.78
37 | CACATACATATATATACACACAAATATATATACACA [CACACA_site8164] | 7.04
38 | ATTATTTTAATTTTAATTTTTTTTTTTTTTTGTTTT [CACACA_negctrl_site1063] | 6.16
39 | TATTTTTCCATAAAAATTTATATAGAAACAAATAAT [GTGCAC_negctrl_site103] | 6.46
40 | CCCTTTTATTAAAATTCACACACATAAATTTTTATA [CACACA_site8611] | 6.74
41 | TGCTTAATTTACGTGGGTACATACACCTCATATATT [XGTACX_site3093] | 6.97
42 | ATATATGTATATTTTTGTACGCATAAATATATTTTT [XGTACX_site827] | 6.46
43 | TTTTTATACAATTAGACACACACAAAAAGTATATAT [CACACA_site8272] | 6.81
44 | TTAATACATATATATATATTATATATATATATATAT [TGCATGCA_negctrl_site177] | 8.89
